# Laboratory results reported in PubChem BioAssay AID662 (National Center for Advancing Translational Sciences (NCATS), 2007).
# The campaign covered roughly 71,000 compounds. About 1,800 (2.5%) were called active. Inconclusive means that the source gave no clear call. Such entries were picked first, then a sample of the others. Calls come from the whole dose curve; as a rule, active = well fitted activation curve with a large enough effect in the signal ratio, with a control signal flat (not every such curve was filed as active); inconclusive = small, poorly fitted or top-dose-only effect, or effect the other way, or a change in a side signal; inactive = flat fitted curve, though single readings scatter; the % refers to the signal ratio. Potencies of inconclusive entries are doubtful fits and often do not repeat.
# Assay: Cell signaling CRE-BLA (Fsk stim); for activity change, negative = inhibition: % of control where 0% means no effect
# Conditions: CHO CRE-bla reporter (cAMP response element driving beta-lactamase), forskolin EC10, beta-lactamase ratio; activity change, negative = inhibition: at 38.2 µM (top of the series) unless noted
# Summary of the method: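 CHO CRE-bla cells, overnight plating in Opti-MEM with 0.5% dialyzed FBS; cpd titration + EC10 NKH 477, 3 h 37 °C; CCF4 2 h RT; ex 405/em 460 vs 530 ratio → %Activity, AC50.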
# Potency is the fitted concentration of half-maximal effect; tags give direction and shape of the fitted curve.
Structure (SMILES),Potency,"activity change, negative = inhibition"
COc1ccc(-c2cc(C(F)F)n3ncc(C(=O)N4CCN5CCCC5C4)c3n2)cc1 (configuration not stated),"inconclusive: 10 µM [rising, partial curve]",–
CCOc1ccc(C2CC(c3ccc(Br)cc3)Nc3nc(N)nn32)cc1 (configuration not stated),–,inactive: -7.9%
CCS(=O)(=O)N1CCN(c2nc(-c3ccccc3)cs2)CC1,–,inactive: 4.6%
COc1ccc(C2=NOC(C(=O)NCc3ccccc3)C2)cc1 (configuration not stated),"inconclusive: 15.8 µM [rising, single point]",–
CCn1ncc2c(OCc3ccc(C#N)cc3)cc(C)nc21,"inconclusive: 10 µM [rising, single point]",–
CC(=O)C1=C(C)Nc2cc(C(F)(F)F)ccc2S1,–,inactive: 5.11%
O=C(Cc1cn2ccsc2n1)Nc1ccccn1,–,inactive: 1.21%
O=C(CSc1ncnc2sc3c(c12)CCCCC3)NCc1ccco1,active: 12.6 µM,–
O=C(Nc1nc(SCc2ccc(F)cc2)ns1)c1ccco1,"inconclusive: 10 µM [rising, partial curve]",–
COc1ccc(-c2nc(CN3CCC(C(=O)NC(C)C)CC3)c(C)o2)cc1OC,–,inconclusive: 16.6%
CCOC(=O)C1=C(CNCc2ccc(C)cc2)NC(=O)NC1c1ccc(OC)cc1 (configuration not stated),"inconclusive: 12.6 µM [rising, partial curve]",–
O=C(CSc1nnc2c3cc(F)ccc3nc(-c3ccccc3)n12)N1CCOCC1,–,inactive: -0.852%
COc1cccc(C(=O)SC2=NCCS2)c1,"inconclusive: 3.16 µM [falling, full curve]",–
COc1ccc(OC)c(NC(=O)CSCc2cnn(-c3ccccc3)c2-n2cccc2)c1,"inconclusive: 25.1 µM [rising, single point]",–
CC1=CC(C)(C)N2C(=O)C3(C(C#N)=C(N)OC4=C3C(=O)CC(C)(C)C4)c3cccc1c32 (configuration not stated),–,inconclusive: -3.85%
COC(=O)c1[nH]c2ccccc2c1NC(=O)CN1CCN(C/C=C/c2ccccc2)CC1,"inconclusive: 25.1 µM [rising, single point]",–
Cn1c2ccccc2c(=O)n2c(=O)c3ccccc3cc12,–,inconclusive: 9.29%
c1ccc(-n2nnnc2SCc2cn3cccnc3n2)cc1,–,inconclusive: -6.43%
O=C(Cn1cc2c(n1)CCCCC2)NCc1cccs1,–,inactive: 0.248%
O=C(c1ccccc1F)N1CCN(c2cccc(C(F)(F)F)c2)CC1,"inconclusive: 6.31 µM [rising, partial curve]",–
Cn1c(=O)c2c(nc(NCc3ccccc3)n2CCCc2ccccc2)n(C)c1=O,"inconclusive: 20 µM [rising, single point]",–
O=C(c1ccccc1)c1nc[nH]c1C(=O)Nc1ccccn1,active: 10 µM,–
CCN(C(=O)COC(=O)c1cnc(C)cn1)C1CCCCC1,–,inconclusive: -1.54%
C[C@@H](C(=O)Nc1ccc2ccccc2c1)[C@H]1C[C@]1(C)[C@H](NC(=O)OCc1ccccc1)c1ccccc1,–,inconclusive: -4.16%
CS(=O)(=O)N1CCc2cc(C(=O)N3CCOCC3)ccc21,–,inconclusive: 19.2%
CCN(C(=O)c1cnc2scc(C)n2c1=O)c1ccccc1C,–,inactive: -1.08%

Structure (SMILES),Potency,"activity change, negative = inhibition"
Cc1cccc2nc(CSc3nnnn3-c3ccccc3)cn12,"inconclusive: 12.6 µM [rising, partial curve]",–
CN(C)S(=O)(=O)c1cccc(-c2nnc(SCc3cc(Cl)cc4c3OCOC4)n2N)c1,–,inconclusive: -5.38%
CCOCC(=O)Nc1nc2ccc(S(C)(=O)=O)cc2s1,–,inconclusive: 14.7%
CCCCCC[C@@H]([C@H](C)O)n1cnc2c(N)ncnc21,–,inactive: 5.67%
COC(=O)c1ccc(CSc2nnc(Nc3ccccc3OC)s2)o1,"inconclusive: 12.6 µM [rising, single point]",–
Cc1ccccc1-c1cncnc1NCCN1CCOCC1,–,inconclusive: 21.8%
CS[C@@H](CC(=O)O)C(=O)O,–,inactive: -8.37% [at 7.6 µM]
Cc1cc(-n2c(SCC(=O)NCc3cccs3)nc3n[nH]c(C)c3c2=N)ccc1Cl,"inconclusive: 10 µM [rising, single point]",–
Cc1nnc(NC(=O)C2CCCN(c3ncccn3)C2)s1 (configuration not stated),"inconclusive: 0.1 µM [falling, single point]",–
O=S1(=O)N=C(N2CCOCC2)c2ccccc21,–,inconclusive: -0.27%
COc1ccc(-c2cc(=O)oc3c(C)c(O)c(CN(C)C)cc23)cc1,–,inactive: -16.1%
O=C(Nc1nccs1)C12CC3CC(C1)CC(C(=O)Nc1nccs1)(C3)C2,–,inconclusive: -24.6%
O=C1NC(c2ccccn2)Nc2sc3c(c21)CCC3 (configuration not stated),"inconclusive: 15.8 µM [rising, single point]",–
CCOC(=O)c1ccc(NC(=O)CSc2nc3c(c(=O)n2C)SC(C)C3)cc1 (configuration not stated),–,inactive: 4.87%
COc1ccc(N2CSC3=C(C#N)C(c4cc(OC)ccc4OC)CC(=O)N3C2)c(OC)c1 (configuration not stated),"inconclusive: 10 µM [rising, partial curve]",–
Cc1ccc(C)c(S(=O)(=O)C(C#N)c2nc3ccccc3nc2N2CC(C)OC(C)C2)c1 (configuration not stated),–,inconclusive: 24.9%
Cc1c(N2CCCC2)cc2c(c1NC(=O)c1ccccc1Cl)C(C)(C)CC2(C)C,–,inconclusive: -5.53% [at 7.6 µM]
COc1cc(C)c(S(=O)(=O)Nc2ccccc2F)cc1C,–,inconclusive: 5.69%
O=C(O)CCCCn1ccc(=O)[nH]c1=O,–,inactive: -11.2% [at 7.6 µM]
COC(=O)[C@@H](NC(=O)c1cc(-c2ccccc2)nc2ccccc12)c1ccccc1,–,inactive: -3.93%
COc1ccccc1CNC(=O)C1CCCN(S(=O)(=O)c2cccc3cccnc23)C1 (configuration not stated),–,inconclusive: -22.1%
COc1cccc(C(=O)N(Cc2ccc3c(c2)OCO3)Cc2nc3ccccc3c(=O)[nH]2)c1,active: 5.01 µM,–
O=C(O)CCC(=O)Nc1ccc(Br)cn1,–,inconclusive: 20.4% [cytotoxic]
CN(C)CCCNc1oc(-c2cccc(Cl)c2)nc1C#N,–,inactive: 12.8%
COc1ccc(C)cc1NC(=O)c1cnc2scc(C)n2c1=O,"inconclusive: 10 µM [rising, partial curve]",–
CC1CN(c2oc(Cc3cccc4ccccc34)nc2C#N)CC(C)O1 (configuration not stated),"inconclusive: 12.6 µM [rising, single point]",–
